# PubChem BioAssay (NCATS)
# The list shows a part of the results. Shown are side measurements of this screen, not its main read-out; they come without a call. Most of these compounds were active or inconclusive in the main read-out, so they are no random draw. Potencies come from curve fits of mixed quality, noted in brackets.
# What was measured:
# [1] = biological target: Catechol O-methyltransferase (Homo sapiens) (UniProt P21964); experiment: Confirmatory Screen for Target Class Profiling of Small Molecule Inhibitors of Methyltransferases (AID 1745852); details: MTase-Glo luminescence, SAH detection, recombinant enzyme; measured here: COMT inhibition potency;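 further: inhibitor potency for blocking SAH production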
# Chain of UniProt P21964 (P21964 whole entry, looked up): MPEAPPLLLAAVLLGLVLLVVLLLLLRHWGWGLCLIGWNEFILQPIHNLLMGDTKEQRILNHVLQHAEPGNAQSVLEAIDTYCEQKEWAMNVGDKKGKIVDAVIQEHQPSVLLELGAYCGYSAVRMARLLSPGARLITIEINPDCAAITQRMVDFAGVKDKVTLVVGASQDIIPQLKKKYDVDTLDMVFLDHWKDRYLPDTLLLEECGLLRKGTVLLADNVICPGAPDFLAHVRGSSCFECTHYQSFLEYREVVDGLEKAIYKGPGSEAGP
# [2] = biological target: Nicotinamide N-methyltransferase (Homo sapiens) (UniProt P40261); experiment: as above; details: MTase-Glo luminescence, SAH detection, recombinant enzyme; measured here: NNMT inhibition potency
# Chain of UniProt P40261 (P40261 whole entry, looked up): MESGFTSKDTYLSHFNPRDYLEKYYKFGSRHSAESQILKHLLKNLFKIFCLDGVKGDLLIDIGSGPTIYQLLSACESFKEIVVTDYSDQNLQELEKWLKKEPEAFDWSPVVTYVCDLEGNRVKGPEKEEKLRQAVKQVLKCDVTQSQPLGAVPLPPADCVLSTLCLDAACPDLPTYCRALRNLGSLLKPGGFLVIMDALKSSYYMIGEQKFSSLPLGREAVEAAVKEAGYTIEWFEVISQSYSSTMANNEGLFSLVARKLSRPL
# [3] = biological target: Histamine N-methyltransferase (Homo sapiens) (UniProt P50135); experiment: as above; details: MTase-Glo luminescence, SAH detection, recombinant enzyme; measured here: HNMT inhibition potency
# Chain of UniProt P50135 (P50135 whole entry, looked up): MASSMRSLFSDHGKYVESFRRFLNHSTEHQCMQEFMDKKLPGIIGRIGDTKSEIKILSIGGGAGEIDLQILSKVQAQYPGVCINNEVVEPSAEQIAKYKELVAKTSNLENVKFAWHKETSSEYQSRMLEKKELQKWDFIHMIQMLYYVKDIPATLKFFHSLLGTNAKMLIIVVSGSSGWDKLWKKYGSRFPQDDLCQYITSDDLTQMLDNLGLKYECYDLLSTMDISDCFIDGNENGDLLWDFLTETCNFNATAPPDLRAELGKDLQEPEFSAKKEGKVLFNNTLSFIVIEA
# [4] = biological target: Phenylethanolamine N-methyltransferase (Homo sapiens) (UniProt P11086); experiment: as above; details: MTase-Glo luminescence, SAH detection, recombinant enzyme; measured here: PNMT inhibition potency
# Chain of UniProt P11086 (P11086 whole entry, looked up): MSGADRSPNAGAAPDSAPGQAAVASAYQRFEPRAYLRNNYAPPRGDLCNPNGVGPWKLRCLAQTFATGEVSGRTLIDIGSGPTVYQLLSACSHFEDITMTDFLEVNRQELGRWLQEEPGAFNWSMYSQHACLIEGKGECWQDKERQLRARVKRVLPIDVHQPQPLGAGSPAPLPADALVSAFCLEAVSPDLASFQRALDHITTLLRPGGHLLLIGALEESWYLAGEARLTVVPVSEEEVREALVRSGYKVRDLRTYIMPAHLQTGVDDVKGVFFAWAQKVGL
# [5] = qHTS Validation Assay to Find Inhibitors of Chronic Active B-Cell Receptor Signaling (AID 485345); details: ABC-DLBCL cells, chronic BCR signaling reporter
# In short: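 TMD8 ABC-DLBCL cells with dox-inducible green luciferase–IκBα fusion and red native luciferase; compounds 46 uM–3 nM, 4 h at 37C with doxycycline in 0.5% FBS IMDM. Green/red ratio normalized to basal and 10 uM MG-132.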
# [6] = qHTS for identification of novel therapeutic agents for treatment of microphthalmiaassociated transcription factor (MiT) renal cell carcinoma (RCC) (AID 1963991); details: CellTiter-Glo, 48 h; for z-score: stronger effect = lower value
# In short: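 Three TFE3-fusion RCC cell lines (UOK109, UOK124, UOK145), 500 cells/well, were exposed to the 1912-compound MIPE 4.0 library for 48 hours at 37 C. Viability was read by CellTiter-Glo luminescence, normalised to DMSO (100%) and empty wells (0%), with 11-concentration curve fits.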
# [7] = qHTS Assay for Modulators of Human Peripheral Myelin Protein 22 (PMP22) Expression/Activity (AID 1967); details: Cell-based PMP22 reporter, dual-color luciferase ratio; measured here: red reporter channel AC50; EF-alpha promoter control reporter in MSC80 mouse Schwann cells
# In short: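 Luminescence ratio of Pmp22 promoter-driven green luciferase to EF-alpha-driven red luciferase, in engineered mouse MSC80 Schwann cells, served as read-out. Compounds were incubated 24h; untreated cells defined 0% Activity; curves were classified by r2, magnitude and activity.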
# [8] = TFE3-RCC viability, measured here: UOK124 cell viability
# [9] = TFE3-RCC viability, measured here: UOK145 cell viability
# [10] = TFE3-RCC UOK109 viability, measured here: UOK109 Z-AUC
# [11] = TFE3-RCC viability, measured here: UOK124 Z-AUC
# [12] = TFE3-RCC viability, measured here: UOK145 Z-AUC
# Tags describe the fitted curve by direction and shape.
smiles,measurement,setting,value
COc1ccc(-c2cc(-c3cnn(C)c3)cn3cncc23)cn1,IC50,[1],"35 µM [falling, partial curve, poor fit]"
same,IC50,[2],"35 µM [falling, partial curve]"
COc1ccc(-c2[nH]nc3ncc(C(=O)N4CCC(c5ccccc5)CC4)nc23)c(C)c1,IC50,[1],"22.1 µM [falling, partial curve]"
same,IC50,[3],"22.1 µM [falling, partial curve]"
same,IC50,[4],"17.5 µM [falling, partial curve]"
COc1cc(OC)c(/C=C2/C(=O)Nc3ccccc32)c(OC)c1,AC50,[5]; measured here: CBG/CBR ratio read-out,"16.4 µM [falling, partial curve]"
same,AC50,[5]; measured here: CBR control luciferase (viability counter),"2.06 µM [rising, partial curve]"
same,IC50,[1],"43.2 µM [falling, partial curve, poor fit]"
same,IC50,[3],"27.3 µM [falling, partial curve, poor fit]"
same,IC50,[2],"27.3 µM [falling, partial curve, poor fit]"
same,IC50,[4],"27.3 µM [falling, single point]"
O=C1COc2ccc(-c3cccc(O)c3)nc2CN1Cc1ccc(C(F)(F)F)cc1,IC50,[1],"49.5 µM [falling, single point]"
same,IC50,[3],"44.1 µM [falling, single point]"
same,IC50,[4],"35 µM [falling, partial curve]"
COc1cc2c(Nc3ccc(Cl)c(Cl)c3F)ncnc2cc1OCC1C[C@@H]2CN(C)C[C@H]2C1,IC50,[1],"19.2 µM [falling, partial curve]"
same,IC50,[3],"17.1 µM [falling, partial curve]"
same,IC50,[2],"21.5 µM [falling, partial curve]"
same,IC50,[4],"19.2 µM [falling, partial curve]"
same,AC50,[6]; [8],"11.8 µM [falling, partial curve]"
same,AC50,[6]; [9],"5.26 µM [falling, partial curve]"
OC[C@H]1O[C@@H](Oc2ccc(O)c3cccc(O)c23)[C@H](O)[C@@H](O)[C@@H]1O,IC50,[1],"2.98 µM [falling, full curve]"
same,IC50,[4],"10.6 µM [falling, partial curve]"
CNc1cc2c(Nc3cccc(Br)c3)ncnc2cn1,IC50,[1],"21.5 µM [falling, partial curve]"
same,IC50,[4],"4.82 µM [falling, full curve]"
COc1cc2ncnc(Nc3ccc(F)c(Cl)c3)c2cc1OCCCN1CCOCC1,IC50,[1],"21.5 µM [falling, partial curve]"
same,IC50,[3],"19.2 µM [falling, partial curve]"
same,IC50,[2],"27.1 µM [falling, partial curve]"
same,IC50,[4],"21.5 µM [falling, partial curve]"
same,z-score,[6]; [10],-3.16
same,z-score,[6]; [11],-0.781
same,AC50,[6]; [8],"27 µM [falling, partial curve]"
same,z-score,[6]; [12],-0.973
same,AC50,[6]; [9],"6.79 µM [falling, full curve]"
Cc1ccc2c(c1)c(=O)[nH]c1c(C(=O)NCc3ccc4c(c3)OCO4)sc(=S)n12,IC50,[1],"21.5 µM [falling, partial curve]"
same,IC50,[2],"8.57 µM [falling, full curve]"
same,IC50,[4],"19.2 µM [falling, partial curve]"
Fc1cccc(-c2nnn3c2nc(NCCc2ccccc2)c2ccccc23)c1,IC50,[3],"19.2 µM [falling, partial curve]"
COc1cc2nc(N3CCN(C)CC3)nc(NC3CCN(Cc4ccccc4)CC3)c2cc1OC,IC50,[3],"21.7 µM [falling, partial curve]"
CC1CCN(CCCNC(=O)C2CCc3sc(C(=O)N4CCCC4)cc3C2)CC1 (stereo not drawn),IC50,[3],"17.1 µM [falling, partial curve]"
O=C([C@@H]1CCCN(c2ccc3[nH]c(C4(n5cc(Cl)cn5)CC4)nc3n2)C1)N1CCCC1,IC50,[3],"24.1 µM [falling, partial curve]"
Oc1ccc2ccccc2c1SSc1c(O)ccc2ccccc12,IC50,[1],"5.44 µM [rising, partial curve, poor fit]"
same,z-score,[6]; [10],-0.0911
same,z-score,[6]; [11],0.329
same,AC50,[6]; [8],"29.6 µM [falling, single point]"
same,z-score,[6]; [12],-0.0732
same,AC50,[6]; [9],"37.2 µM [falling, single point]"
C=CCN1CCc2cc(O)c(O)cc2C(c2ccccc2)C1 (stereo not drawn),AC50,[7],"67.5 µM [falling, partial curve, poor fit]"
same,IC50,[1],"6.85 µM [rising, partial curve]"
